The results in this text go back to the supplement of paper PMC10600219.

Counter-ions that a name gives are not always drawn. ± gives the standard deviation of the averaged measurements. In all, about 2,800 compounds were measured (“cell viability relative to vehicle”: median about 0.98, lowest 2% from about 0.45 on). The list shows a part of the results.

In the test the test system is NCI-H2228 alectinib-DTP. Briefly: cell viability relative to vehicle (fraction of vehicle); NCI-H2228 is an ALK-positive lung cancer line and DTP means drug-tolerant persister; higher = less growth inhibition. Conditions: 100 nM; treatment time 6 days. The gist of the method: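 Drug-tolerant persister NCI-H2228 cells, produced by 13 days in 1000 nM of a targeted drug, and their parental counterparts were seeded into 384-well plates and, the following day, given the 3114-agent TargetMol anti-cancer compound library at 100 nM or DMSO vehicle. After 6 days, the CellTiter-Glo 3D Cell Viability Assay was used to read ATP. Each entry reports viability compared with vehicle-treated cells.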
As to `COc1cc2c(cc1O)CC[C@@H]1[C@@H]2CC[C@]2(C)[C@@H](O)CC[C@@H]12` [2-Methoxyestradiol], the cell viability is 0.973.
The same measure for `COc1cc(N2CCN(C)CC2)ccc1Nc1nccc(-c2cn(C)c3cnccc23)n1`: 0.973; for `COC(=O)C1=C(C)NC(C)=C(C(=O)OC)C1c1ccccc1[N+](=O)[O-]` [Nifedipine]: 1.02.
`O=C(Nc1nc(-c2ccc(O)c(O)c2)c(-c2ccccc2)s1)c1ccc(O)c(O)c1` displayed a cell viability of 1.03.
Then `O=c1[nH]c(=O)n([C@@H]2O[C@H](CO)[C@@H](O)[C@H]2O)cc1F` [5-Fluorouridine], with 0.837; and `CN(C)CCCN1c2ccccc2CCc2ccc(Cl)cc21` [Clomipramine hydrochloride], with 0.992; and `O=C(O)CSc1cc(NS(=O)(=O)c2ccc(Br)cc2)c2ccccc2c1O`, with 0.897.
Then `COC(=O)N1CCN(Cc2cccc(NC(=O)Nc3ccc(C)nc3)c2F)CC1` [Omecamtiv mecarbil], with 1.03; and `O=C1NC(=O)/C(=C\c2ccc3nccnc3c2)S1`, with 0.989.
Consider `Cc1cc(NC(=O)C2=C(O)c3ccccc3S(=O)(=O)N2C)no1` [Isoxicam], for which the cell viability was found to be 0.961.
Then `Nc1ccc(O)c(C(=O)O)c1` [Mesalamine], with 1.14; and `CCC(=O)O[C@H](CC(=O)O)C[N+](C)(C)C` [Propionyl-L-carnitine hydrochloride], with 0.992; and `O=C1c2cccc3c2[C@H](CCC3)CN1[C@@H]1CN2CCC1CC2` [Palonosetron hydrochloride], with 1.03.
The same measure for `COc1cc(/C=C/C(=O)CC(=O)/C=C/c2ccc(O)c(OC)c2)ccc1O` [Curcumin]: 1.07; for `O=C(O)CSCC(=O)NC1CCSC1=O` (centres undefined) [Erdosteine]: 1.03; for `COC(=O)c1ccc2c(C(=Nc3ccc(N(C)C(=O)CN4CCN(C)CC4)cc3)c3ccccc3)c(O)[nH]c2c1` [Nintedanib Ethanesulfonate Salt]: 0.899.
The same measure for `O=C1NC(=O)/C(=C/c2cccc(C(F)(F)F)c2)S1`: 0.967 ± 0.074.
In turn, `Cc1cc(O)c2c(c1)C(=O)c1cc(O)cc(O)c1C2=O` [Emodin] returned a cell viability of 0.954.
For `Clc1ccc(Nc2nnc(Cc3ccncc3)c3ccccc23)cc1` [Vatalanib 2HCl], the cell viability turned out to be 1.05.
The same measure for `Cn1cc(-c2ccc3nnc(Sc4ccc5ncccc5c4)n3n2)cn1`: 0.98.
The same measure for `C[N+](C)(C)CCO.[Cl-]` [Choline chloride]: 1.06.
Then `CN1CCN(C2CCN(C(=O)Nc3cc(Oc4ccc(NC(=O)C5(C(=O)Nc6ccc(F)cc6)CC5)c(F)c4)ccn3)CC2)CC1` [Golvatinib], with 1.12.
`C/C=C1\[C@H]2C=C(C)C[C@]1(N)c1ccc(=O)[nH]c1C2` [(-)-Huperzine A] came in with a cell viability of 0.98.
The same measure for `CC(C)=CCOc1c2ccoc2cc2oc(=O)ccc12` [Isoimperatorin]: 0.933; for `COc1cc(/C=C/C(=O)NCCn2c(C(F)(F)F)cc3ccccc32)cc(OC)c1OC`: 0.985.
In turn, `CN1CCC(OC(c2ccccc2)c2ccccc2)CC1` [Diphenylpyraline hydrochloride] displayed a cell viability of 1.13.
The molecule `CC(C)=CCC[C@](C)(O[C@@H]1O[C@H](CO[C@@H]2O[C@H](CO)[C@@H](O)[C@H](O)[C@H]2O)[C@@H](O)[C@H](O)[C@H]1O)[C@H]1CC[C@]2(C)[C@@H]1[C@H](O)C[C@@H]1[C@@]3(C)CC[C@H](O[C@@H]4O[C@H](CO)[C@@H](O)[C@H](O)[C@H]4O[C@@H]4O[C@H](CO)[C@@H](O)[C@H](O)[C@H]4O)C(C)(C)[C@@H]3CC[C@]12C` [Ginsenoside Rb1] came in with a cell viability of 0.976.
The same measure for `CCCC(=O)OCOC(=O)C1=C(C)NC(C)=C(C(=O)OC)C1c1cccc(Cl)c1Cl` (centres undefined) [Clevidipine butyrate]: 1.22; for `C[C@H]1COc2c(N3CCN(C)CC3)c(F)cc3c(=O)c(C(=O)O)cn1c23` [Levofloxacin Hemihydrate]: 0.911; for `Cn1c(O)c(C2=c3ccccc3=NC2=O)c2ccccc21` [Methylisoindigotin]: 0.85.
Then `Nc1ccc(S(=O)(=O)NCCc2ccccc2)cc1`, with 0.91; and `Fc1ccc([C@@H]2CCNC[C@H]2COc2ccc3c(c2)OCO3)cc1` [Paroxetine hydrochloride], with 0.99.
The same measure for `Nc1nc(O)c2ncn(CCC(CO)CO)c2n1` [Penciclovir]: 0.955; for `CN1CCN(c2ccc(OC(F)(F)F)c(Nc3ncc4c(n3)-c3c(c(C(N)=O)nn3CCO)CC4)c2)CC1`: 0.704; for `O=c1[nH]cnc2c1ncn2[C@H]1CC[C@@H](CO)O1` [Didanosine]: 0.953.
`O=C(/C=C/N1C[C@H]2C[C@@H]1CN2c1ccccn1)c1ccccc1O` displayed a cell viability of 0.925.
The same measure for `CC1COc2c(N3CCN(C)CC3)c(F)cc3c(=O)c(C(=O)O)cn1c23` (centres undefined) [Ofloxacin]: 1.08; for `CCOC(=O)Nc1ccc(NCc2ccc(F)cc2)nc1N` [Flupirtine maleate]: 0.988; for `CCOc1cc(C(C)(C)C)ccc1C1=N[C@@](C)(c2ccc(Cl)cc2)[C@@](C)(c2ccc(Cl)cc2)N1C(=O)N1CCN(CCCS(C)(=O)=O)CC1`: 1.16.
The same measure for `Cc1cc(C)nc(NC(=S)N2CCN(Cc3ccc(C(F)(F)F)cc3)CC2)c1`: 1.21; for `CC(C)=CCc1cc2c(cc1O)oc(=O)c1c3ccc(O)cc3oc21` [Psoralidin]: 1.15.
Then `C[C@H](CCC(=O)O)[C@H]1CC[C@H]2[C@@H]3CC[C@@H]4C[C@H](O)CC[C@]4(C)[C@H]3CC[C@]12C` [Lithocholic acid], with 0.908.
Regarding `S=C(NCc1ccc2c(c1)OCO2)N1CCN(c2ncnc3c2oc2ccccc23)CC1` [Amuvatinib], the cell viability is 0.914.
In turn, `CC(=O)OCC[N+](C)(C)C` [Acetylcholine chloride] had a cell viability of 1.17.
The same measure for `CC1(C)CCC2=C(O1)c1ccccc1C(=O)C2=O` [Beta-Lapachone]: 1.07; for `CC(C)C(=O)Nc1ccc([N+](=O)[O-])c(C(F)(F)F)c1` [Flutamide]: 1.03; for `Cn1cnc([N+](=O)[O-])c1Sc1ncnc2[nH]cnc12` [Azathioprine]: 0.914.
`CN(C)CCCn1cc(C2=C(c3c[nH]c4ccccc34)C(=O)NC2=O)c2ccccc21` [Bisindolylmaleimide I] came in with a cell viability of 0.925.
As for `COc1cccc(-c2cc(F)ccc2[C@H]2Cc3nc(N)nc(C)c3C(=O)N2)n1`, the cell viability amounted to 0.502.
